Our source for the ALDHbr values is the supplement of paper PMC11880418.

Among the test systems are MKN45; PANC1; SUM159; T84.
Experiment in all cases: ALDHbr (CSC) cell proportion score relative to DMSO vehicle (ratio to DMSO); breast (SUM159) / gastric (MKN45) / pancreatic (PANC1) / colon cancer lines; ALDHbr cells have high ALDH activity and are rich in cancer stem cells (CSC); higher = more CSC (ALDHbr) cells remaining
Common to all, as to conditions: 10 µM; 72 h

Structures can show the parent of a compound that is named as a salt. This is one part of the list. The data scatter; read single values as rough.
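Further: High-content imaging of ALDEFLUOR-stained cells with Hoechst-labelled nuclei in 384-well plates, triplicate wells, scored as Z-score against 0.1% DMSO vehicle, negative meaning fewer ALDHbr cells.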

In the case of `Cc1ccc(C)c(OCCCC(C)(C)C(=O)O)c1` [Gemfibrozil], the ALDHbr with MKN45 was determined as 1.03; in the test with PANC1, 0.844; with SUM159, 0.934; with T84, 0.861.

Turning to `C=CC[N@@+]12CC[C@@]34c5ccccc5N5/C=C6/[C@H]7C[C@H]8[C@@]9(CC[N@@+]8(CC=C)C/C7=C/CO)c7ccccc7N(/C=C(/[C@@H](C[C@@H]31)/C(=C\CO)C2)[C@H]54)[C@@H]69` [Alcuronium chloride], the ALDHbr with MKN45 is 1.15; in the test with PANC1, 0.922; in the test with SUM159, 0.936; in the test with T84 it was 0.954.

Turning to `N=C(N)NCC1COC2(CCCCC2)O1` (configuration not stated) [Guanadrel sulfate], the ALDHbr in the test with MKN45 is 0.972; in the test with PANC1, 0.925; in the test on SUM159, 1.11; in the test on T84, 1.01.

On to `OC(CNCC(O)C1CCc2cc(F)ccc2O1)C1CCc2cc(F)ccc2O1` (configuration not stated) [Nebivolol hydrochloride], for which the ALDHbr turned out to be 0.989 in the test with MKN45, 0.984 in the test on PANC1, 1.13 with SUM159 and 0.376 in the test on T84.

In the case of `CC(=O)N[C@@H](CC(C)C)C(=O)O` [N-Acetyl-L-leucine], the ALDHbr came out at 1.05 in the test on MKN45, 1.1 in the test with PANC1, 0.931 in the test on SUM159 and 1.11 in the test on T84.

As to `C[C@]12CCC(=O)C=C1CC[C@@H]1[C@@H]2C(=O)C[C@@]2(C)[C@H]1CC[C@]2(O)C(=O)CO` [Cortisone], the ALDHbr in the test on MKN45 was determined as 0.878; in the test with PANC1, 0.857; with SUM159, 0.976; in the test with T84, 0.948.

As for `O=C(O)c1cc(/N=N/c2ccc(S(=O)(=O)Nc3ccccn3)cc2)ccc1O` [Sulfasalazine], the ALDHbr is 0.963 in the test on MKN45, 1.04 in the test with PANC1, 1.06 in the test on SUM159 and 0.791 with T84.

For `CN1CCCC(n2nc(Cc3ccc(Cl)cc3)c3ccccc3c2=O)CC1` (configuration not stated) [Azelastine hydrochloride], the ALDHbr in the test with MKN45 amounted to 0.937; in the test with PANC1, 0.73; in the test on SUM159, 0.588; with T84, 0.805.
